Assay results as given in the supplement of paper PMC3334620.
Over roughly 33,000 sequences, “E-score (-0.5 to 0.5)” has its median near -0.016; the highest 2% begin near 0.32. The list shows a part of the results.

Target: T1, Stp1 (UniProt B3LFK1)
T1 sequence: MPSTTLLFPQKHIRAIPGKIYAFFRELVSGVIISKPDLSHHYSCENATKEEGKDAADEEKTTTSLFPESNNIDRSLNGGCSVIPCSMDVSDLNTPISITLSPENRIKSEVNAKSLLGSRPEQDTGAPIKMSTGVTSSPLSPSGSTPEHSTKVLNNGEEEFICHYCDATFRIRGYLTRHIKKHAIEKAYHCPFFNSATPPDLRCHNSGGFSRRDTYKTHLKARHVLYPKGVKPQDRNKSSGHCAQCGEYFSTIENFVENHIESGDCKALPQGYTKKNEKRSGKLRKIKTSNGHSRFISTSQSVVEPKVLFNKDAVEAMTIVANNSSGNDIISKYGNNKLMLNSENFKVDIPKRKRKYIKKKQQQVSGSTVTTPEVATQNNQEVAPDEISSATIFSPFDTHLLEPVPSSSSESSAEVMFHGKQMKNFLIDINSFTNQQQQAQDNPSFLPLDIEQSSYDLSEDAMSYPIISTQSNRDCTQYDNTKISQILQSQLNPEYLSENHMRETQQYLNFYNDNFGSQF
Test: PBM E-score (8-mer binding enrichment) (E-score (-0.5 to 0.5)); higher = stronger / more preferred TF binding; most listed sequences are background and not binding sites
Settings: protein concentration: 200 nM; construct: GST-full length
Experimental: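 Universal 'all 10-mer' protein binding microarrays (Agilent AMADID 015681) probed with GST-tagged S. cerevisiae TFs (full-length or DBD) made by in vitro transcription/translation (PURExpress), about 100-200 nM. Bound TF was detected with fluorescent anti-GST. Each ungapped 8-mer (which stands for itself and its reverse complement) is scored by the PBM enrichment score (E-score), a modified Wilcoxon-Mann-Whitney statistic from -0.5 to +0.5, computed with the Universal PBM Analysis Suite. Scale: above 0.35 generally sequence-specific binding.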

Sequence	PBM E-score
CATATTGA	-0.0282
CTCTGTCC	-0.193
CATCACGA	0.0263
ATACATTC	-0.181
CTAGGCAA	-0.0541
ACAAGAGA	-0.0297
GACTTGCC	-0.103
AATGACAG	-0.0923
AATGACTC	-0.225
CAGTGGGC	0.00978
CAATGGCC	-0.167
CCCCTGCA	-0.289
GACATCAC	0.0238
GTAACTAA	0.0925
CGGGTGCA	-0.0822
GTCGTGGA	-0.0594
AATTCCTC	-0.167
CCTATATC	0.03
ACATGAGT	-0.141
GATTTTAC	-0.0481
ACTTGAGC	-0.222
ATATAGTA	0.134
GCCGCGAA	0.159
CTAATAGA	0.142
GGAACGAC	-0.196

Sequence	PBM E-score
GACGAAGC	0.00857
CGTCCGAC	-0.146
CATCCCCC	-0.273
AGAGGTAC	-0.122
TCTGCGCA	0.0892
CTCATAAG	0.0274
ACCAGGAG	-0.0553
ACAAGACC	-0.193
AAGTAGAA	0.0178
CTCGAAGC	-0.053
CGAAATAG	0.0687
GACATAGC	0.0411
AAGCGCGA	-0.0441
GAGCGATC	-0.191
TCGGCAAA	0.0291
ATCGCACG	0.0568
GATCTTGC	0.102
CGACCAGA	-0.0314
ATCAGTTG	0.00725
CTTCCATC	0.0176
CAGTACTA	-0.141
CCGTGTAC	0.287
ATAACCCC	-0.223
AATAGACT	-0.149
ACTCTCCC	-0.159

Sequence	PBM E-score
ATCGGGGC	-0.219
ACCAAGGA	0.046
GGCGAAGA	0.0587
TAATTATA	0.254
CTGAATAA	0.138
AGACGGGG	-0.154
CATTATGA	0.0784
CACTAGTG	0.056
CCCAAAAC	0.00365
AGCCCCTC	-0.203
GTCGTTAA	-0.0161
CACGGTAG	-0.0367
ACCACTTG	-0.105
CAAGGATA	0.0131
CGCACTAC	-0.0159
CCAGCTTC	-0.115
CCCCTACG	-0.221
AGCACATC	-0.123
AGATTCGG	0.0539
CGGGGGAG	-0.332
TGCACTAA	0.109
ATCGCTTA	-0.214
GACGGATA	0.0788
AGTGGATA	-0.0358
TCCGATAA	-0.173

Sequence	PBM E-score
ACTATTGA	0.157
GAGTATGA	-0.0107
AATAATCC	-0.0326
ACCCGCCC	-0.0208
AACTCTGG	-0.0499
GTACCTAA	-0.0311
CGTAGCTA	-0.0994
AACCCTGC	-0.232
ATGTGTCA	0.0685
CACATATG	0.0756
ACAATCCT	0.00881
CTGGCTAC	-0.0658
CGGGCTGC	-0.0505
GATTTATA	0.165
AGTTTCCA	0.0131
ATTGCTGG	-0.0603
TATCCACA	0.0396
CTATGGAC	0.0331
ACGTCTTG	-0.00832
CCCCACAG	-0.211
GATCTACC	-0.204
ACGTCGTG	-0.00714
GTAGGCAA	0.086
AGAGGCTA	-0.136
AACATACA	0.0939

Sequence	PBM E-score
CGGCTTAA	0.318
ACCGTGCG	0.371
GTTCCTCA	-0.0243
AGCAATAG	0.0149
CAGTCATG	-0.178
CAATACTA	0.0551
CATTCTAC	0.177
CTTAGAAG	-0.0262
AACGACTT	-0.155
GACTCCTA	-0.211
AGCGTATG	-0.069
AGCATCGC	-0.17
AAACGTTG	-0.17
CCCGGGTA	-0.253
ATAAGTCG	-0.108
AACCCTCC	-0.264
AGTGGCAA	0.162
GCCCAAAA	0.0343
ATTTTTTG	0.146
CTAAAGGA	0.0863
GGGTAGGA	-0.205
CCGAACGG	0.334
CTCCACAA	-0.0566
GCGGATAC	0.124
ATGGCGGA	-0.208

Sequence	PBM E-score
ATTGGTCC	-0.0399
CACCAAGA	0.134
CGTGCGCC	0.314
ATGTGCGA	-0.011
CACGCTCA	-0.00088
AACGTTGG	-0.0241
AGGAGACT	-0.27
AGCAAAGA	-0.152
GGGGGTAC	-0.025
AGCTATAG	-0.267
CGACTACA	0.0468
GAGTACTA	0.051
AGGACCGC	0.0444
GAAATTTC	-0.153
GCAAGCGA	-0.108
CGACAACC	-0.103
AACCAAGA	0.0718
AAGGGATA	-0.00219
TCCACCAA	-0.144
AATTTCTC	0.174
CTGAAAGC	0.0435
ATGGACTG	-0.195
CAGCTCGC	-0.0157
AGTTGAAT	0.145
AAAGAGCT	-0.137

Sequence	PBM E-score
CAGCAAGA	-0.0152
CTGCAAAC	-0.0684
CGCCATTA	0.092
ATGTAATC	-0.00954
GCGGCAAA	0.383
AATCCCCC	-0.393
CGAATGTA	-0.241
AATCGCTG	-0.123
CCGTCTTA	0.0744
CCCTGTCC	-0.184
AATGAAGC	0.0211
GACTTGAC	-0.145
ACCGCTTA	-0.238
TAGGAAAA	-0.0169
CAATATTA	0.108
CTCCTAAA	-0.191
AAGCTCGG	-0.0757
AGTCGGCA	0.154
GCGCAGCC	-0.013
AGGCGGAG	0.0102
ATTGTTCC	0.11
AGAGCTGA	-0.099
